# The list shows a part of the results.
# B1: SefD (Salmonella enterica), Q9L6K6 (protein)
# chain: GAYIIRGQNNSAHKLRIRIGGEDWQPDNSGIGMVSHSDFTNEFNIYYFGNGDIPVDTYLISIYATEIEL
# Key:
# Assay in all cases: glycan array binding signal (z-score within array); higher = stronger binding
# Conditions in all cases: glycan notation: IUPAC condensed, linker removed
# GlcNAc(b1-6)GalNAc = molecular target: GlcNAc(b1-6)GalNAc
# How it was run: (§1)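 Arrays were curated from the Consortium for Functional Glycomics database, 3228 in total, and kept only where the protein sequence was available. Binding is expressed as a within-array Z-score. This score was averaged across arrays of the same protein sequence at different concentrations or buffers and across linkers, and negative values can be read as non-binding.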
# GlcNAc3Prop(b1-4)GlcNAc = molecular target: GlcNAc3Prop(b1-4)GlcNAc
# How it was run: as §1
# [1] = molecular target: GlcNAc6S(b1-3)Gal(b1-4)GlcNAc
# How it was run: as §1
# Kdn(a2-3)Gal(b1-3)GalNAc = molecular target: Kdn(a2-3)Gal(b1-3)GalNAc
# How it was run: as §1
# Kdn(a2-3)Gal(b1-3)GlcNAc = molecular target: Kdn(a2-3)Gal(b1-3)GlcNAc
# How it was run: as §1
# Kdn(a2-3)Gal(b1-4)Glc = molecular target: Kdn(a2-3)Gal(b1-4)Glc
# How it was run: as §1
# Kdn(a2-3)Gal(b1-4)GlcNAc = molecular target: Kdn(a2-3)Gal(b1-4)GlcNAc
# How it was run: as §1
# [2] = molecular target: Kdn(a2-3)Gal(b1-4)[Fuc(a1-3)]GlcNAc
# How it was run: as §1
# Kdn(a2-6)Gal(b1-4)GlcNAc = molecular target: Kdn(a2-6)Gal(b1-4)GlcNAc
# How it was run: as §1
# [3] = molecular target: Man(a1-2)Man(a1-2)Man(a1-3)Man
# How it was run: as §1
# [4] = molecular target: Man(a1-2)Man(a1-2)Man(a1-6)[Man(a1-3)]Man
# How it was run: as §1
# Man(a1-2)Man(a1-3)Man = molecular target: Man(a1-2)Man(a1-3)Man
# How it was run: as §1
# [5] = molecular target: Man(a1-2)Man(a1-3)[Man(a1-2)Man(a1-6)]Man
# How it was run: as §1
# [6] = molecular target: Man(a1-2)Man(a1-3)[Man(a1-2)Man(a1-6)]Man(a1-6)[Man(a1-2)Man(a1-2)Man(a1-3)]Man
# How it was run: as §1
# [7] = molecular target: Man(a1-2)Man(a1-3)[Man(a1-2)Man(a1-6)]Man(a1-6)[Man(a1-2)Man(a1-2)Man(a1-3)]Man(b1-4)GlcNAc(b1-4)GlcNAc
# How it was run: as §1
# [8] = molecular target: Man(a1-2)Man(a1-3)[Man(a1-6)]Man(a1-6)[Man(a1-2)Man(a1-3)]Man(b1-4)GlcNAc(b1-4)GlcNAc
# How it was run: as §1
# [9] = molecular target: Man(a1-2)Man(a1-6)[Man(a1-3)]Man(a1-6)[Man(a1-2)Man(a1-2)Man(a1-3)]Man
# How it was run: as §1
# [10] = molecular target: Man(a1-2)Man(a1-6)[Man(a1-3)]Man(a1-6)[Man(a1-2)Man(a1-2)Man(a1-3)]Man(b1-4)GlcNAc(b1-4)GlcNAc
# How it was run: as §1
# Man(a1-3)[Man(a1-6)]Man = molecular target: Man(a1-3)[Man(a1-6)]Man
# How it was run: as §1
# [11] = molecular target: Man(a1-3)[Man(a1-6)]Man(a1-6)[Man(a1-2)Man(a1-3)]Man(b1-4)GlcNAc(b1-4)GlcNAc
# How it was run: as §1
# [12] = molecular target: Man(a1-3)[Man(a1-6)]Man(a1-6)[Man(a1-3)]Man
# How it was run: as §1
# [13] = molecular target: Man(a1-3)[Man(a1-6)]Man(a1-6)[Man(a1-3)]Man(b1-4)GlcNAc(b1-4)GlcNAc
# How it was run: as §1
# [14] = molecular target: Man(a1-3)[Man(a1-6)]Man(b1-4)GlcNAc(b1-4)GlcNAc
# How it was run: as §1
# Man(a1-6)Man = molecular target: Man(a1-6)Man
# How it was run: as §1
# Man(b1-4)GlcNAc = molecular target: Man(b1-4)GlcNAc
# How it was run: as §1
# Neu5Ac(a2-3)Gal = molecular target: Neu5Ac(a2-3)Gal
# How it was run: as §1
# [15] = molecular target: Neu5Ac(a2-3)Gal(b1-3)GalNAc
# How it was run: as §1
# [16] = molecular target: Neu5Ac(a2-3)Gal(b1-3)GalNAc(b1-3)Gal(a1-4)Gal(b1-4)Glc
# How it was run: as §1
# [17] = molecular target: Neu5Ac(a2-3)Gal(b1-3)GalNAc(b1-4)[Neu5Ac(a2-3)]Gal(b1-4)Glc
# How it was run: as §1
# [18] = molecular target: Neu5Ac(a2-3)Gal(b1-3)GalNAc(b1-4)[Neu5Ac(a2-8)Neu5Ac(a2-3)]Gal(b1-4)Glc
# How it was run: as §1
# [19] = molecular target: Neu5Ac(a2-3)Gal(b1-3)GalNAc6S
# How it was run: as §1
# [20] = molecular target: Neu5Ac(a2-3)Gal(b1-3)GlcNAc
# How it was run: as §1
# [21] = molecular target: Neu5Ac(a2-3)Gal(b1-3)GlcNAc(b1-3)Gal(b1-3)GlcNAc
# How it was run: as §1
# [22] = molecular target: Neu5Ac(a2-3)Gal(b1-3)GlcNAc(b1-3)Gal(b1-4)GlcNAc
# How it was run: as §1
# [23] = molecular target: Neu5Ac(a2-3)Gal(b1-3)GlcNAc(b1-3)GalNAc
# How it was run: as §1
# [24] = molecular target: Neu5Ac(a2-3)Gal(b1-3)GlcNAc6S
# How it was run: as §1
# [25] = molecular target: Neu5Ac(a2-3)Gal(b1-3)[Fuc(a1-4)]GlcNAc
# How it was run: as §1
# [26] = molecular target: Neu5Ac(a2-3)Gal(b1-3)[Fuc(a1-4)]GlcNAc(b1-3)Gal(b1-3)[Fuc(a1-4)]GlcNAc
# How it was run: as §1
# [27] = molecular target: Neu5Ac(a2-3)Gal(b1-3)[Fuc(a1-4)]GlcNAc(b1-3)Gal(b1-4)[Fuc(a1-3)]GlcNAc
# How it was run: as §1
# [28] = molecular target: Neu5Ac(a2-3)Gal(b1-3)[Neu5Ac(a2-3)Gal(b1-4)]GlcNAc
# How it was run: as §1
# [29] = molecular target: Neu5Ac(a2-3)Gal(b1-3)[Neu5Ac(a2-6)]GalNAc
# How it was run: as §1
# Neu5Ac(a2-3)Gal(b1-4)Glc = molecular target: Neu5Ac(a2-3)Gal(b1-4)Glc
# How it was run: as §1
# [30] = molecular target: Neu5Ac(a2-3)Gal(b1-4)GlcNAc
# How it was run: as §1
# [31] = molecular target: Neu5Ac(a2-3)Gal(b1-4)GlcNAc(b1-2)Man(a1-3)[GlcNAc(b1-2)Man(b1-4)GlcNAc(b1-2)Man(a1-6)]Man(b1-4)GlcNAc(b1-4)GlcNAc
# How it was run: as §1
# [32] = molecular target: Neu5Ac(a2-3)Gal(b1-4)GlcNAc(b1-2)Man(a1-3)[Neu5Ac(a2-6)Gal(b1-4)GlcNAc(b1-2)Man(a1-6)]Man(b1-4)GlcNAc(b1-4)GlcNAc
# How it was run: as §1
binder,measurement,setting,value
B1,glycan array binding signal (z-score),GlcNAc(b1-6)GalNAc,-0.218
same,glycan array binding signal (z-score),GlcNAc3Prop(b1-4)GlcNAc,6.32
same,glycan array binding signal (z-score),[1],-0.087
same,glycan array binding signal (z-score),Kdn(a2-3)Gal(b1-3)GalNAc,-0.287
same,glycan array binding signal (z-score),Kdn(a2-3)Gal(b1-3)GlcNAc,-0.283
same,glycan array binding signal (z-score),Kdn(a2-3)Gal(b1-4)Glc,-0.629
same,glycan array binding signal (z-score),Kdn(a2-3)Gal(b1-4)GlcNAc,-0.453
same,glycan array binding signal (z-score),[2],-0.155
same,glycan array binding signal (z-score),Kdn(a2-6)Gal(b1-4)GlcNAc,0.3
same,glycan array binding signal (z-score),[3],-0.374
same,glycan array binding signal (z-score),[4],-0.385
same,glycan array binding signal (z-score),Man(a1-2)Man(a1-3)Man,-0.321
same,glycan array binding signal (z-score),[5],-0.393
same,glycan array binding signal (z-score),[6],-0.15
same,glycan array binding signal (z-score),[7],-0.324
same,glycan array binding signal (z-score),[8],-0.507
same,glycan array binding signal (z-score),[9],1.04
same,glycan array binding signal (z-score),[10],-0.167
same,glycan array binding signal (z-score),Man(a1-3)[Man(a1-6)]Man,0.39
same,glycan array binding signal (z-score),[11],-0.501
same,glycan array binding signal (z-score),[12],-0.291
same,glycan array binding signal (z-score),[13],0.315
same,glycan array binding signal (z-score),[14],-0.082
same,glycan array binding signal (z-score),Man(a1-6)Man,0.042
same,glycan array binding signal (z-score),Man(b1-4)GlcNAc,-0.351
same,glycan array binding signal (z-score),Neu5Ac(a2-3)Gal,0.87
same,glycan array binding signal (z-score),[15],-0.262
same,glycan array binding signal (z-score),[16],-0.295
same,glycan array binding signal (z-score),[17],-0.395
same,glycan array binding signal (z-score),[18],0.003
same,glycan array binding signal (z-score),[19],-0.342
same,glycan array binding signal (z-score),[20],-0.336
same,glycan array binding signal (z-score),[21],-0.361
same,glycan array binding signal (z-score),[22],-0.581
same,glycan array binding signal (z-score),[23],-0.39
same,glycan array binding signal (z-score),[24],-0.237
same,glycan array binding signal (z-score),[25],0.924
same,glycan array binding signal (z-score),[26],-0.129
same,glycan array binding signal (z-score),[27],-0.289
same,glycan array binding signal (z-score),[28],-0.334
same,glycan array binding signal (z-score),[29],2.7
same,glycan array binding signal (z-score),Neu5Ac(a2-3)Gal(b1-4)Glc,-0.059
same,glycan array binding signal (z-score),[30],0.204
same,glycan array binding signal (z-score),[31],-0.276
same,glycan array binding signal (z-score),[32],-0.507

# — the supplement of paper PMC8728848
